Experimental findings from PubChem BioAssay AID485344 (National Center for Advancing Translational Sciences (NCATS), 2010) are described below.

Structures are written as SMILES. Hit rate of the full screen: of about 340,000 compounds, about 6,900 (2%) were called active. Cut-off read from the data, not from the text of the source: active = inhibition above about 30%; inactive = below that, where a call was filed. The list shows a part of the results, in another mix than the full data. Where no call is shown, the source filed none.

This experiment deals with D(2) dopamine receptor (Homo sapiens) (UniProt P14416). The experiment can be described thus: HTS Assay for Allosteric Antagonists of the Human D2 Dopamine Receptor: Primary Screen for Antagonists. Note: 0% is about no effect. Conditions: HEK293 TREx D2 cells, calcium flux, dopamine EC80; at 10 µM; stronger effect = higher value. The essentials: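 Cells plated overnight at 30 C with tetracycline; no-wash calcium dye, 30–90 min RT; 10 s baseline; compound pinned; 180 s read; EC80 dopamine added; another 180 s read.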
UniProt P14416, sequence (P14416 whole entry, looked up): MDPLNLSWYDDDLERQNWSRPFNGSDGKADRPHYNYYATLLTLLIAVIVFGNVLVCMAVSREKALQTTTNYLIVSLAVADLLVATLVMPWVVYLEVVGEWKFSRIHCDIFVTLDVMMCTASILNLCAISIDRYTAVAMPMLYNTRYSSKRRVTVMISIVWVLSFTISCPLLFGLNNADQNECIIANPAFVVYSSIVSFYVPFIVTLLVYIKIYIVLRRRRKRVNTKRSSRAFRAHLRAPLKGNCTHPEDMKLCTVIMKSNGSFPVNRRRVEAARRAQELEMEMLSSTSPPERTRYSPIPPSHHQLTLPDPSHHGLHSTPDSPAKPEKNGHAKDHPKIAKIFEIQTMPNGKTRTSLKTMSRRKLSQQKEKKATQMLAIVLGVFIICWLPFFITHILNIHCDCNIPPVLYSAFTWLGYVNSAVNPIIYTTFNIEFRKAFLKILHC
Take `COc1ccc(-c2c(C)c3ccc(O)c(CN4CCN(CCO)CC4)c3oc2=O)cc1OC`: the inhibition (in general, the drop in the measured response relative to a control, in per cent) is -1%.
With `Cc1ccc(CCNC(=O)c2c(C)oc3ncn(CC(C)C)c(=O)c23)cc1` the figure was 0.195%; with `CC(C)(C)OC(=O)N1CCC(c2c(C(=O)NCCc3ccccc3)cnn2-c2ccc(F)cc2F)CC1`, -5.8%.
With `COc1cc(Cl)c(C)cc1NC(=O)CC(c1ccc(F)cc1)N1Cc2ccccc2C1=O` (stereo not given) the figure was 5.81%; with `Cn1c(=O)oc2cc(S(=O)(=O)N3CCC(C(=O)N4CCN(c5ccccc5F)CC4)CC3)ccc21`, 3.1%.
`CCOC(=O)c1c(NC(=O)COc2cccc(C)c2C)sc2c1CCC(CC)C2` (stereo not given): the inhibition is -1.11%.
As to `Cc1ccc(/C=C/C(=O)Nc2ccccc2C(N)=O)o1`, the inhibition is 0.175%.
For the molecule `COc1cccc(CNC(=O)c2cc(Sc3cccc(Cl)c3)nc3ccccc23)c1`, the inhibition is 6.19%.
As to `COc1ccccc1NC(=O)COc1ccc(-c2nn(C)c(=O)c3ccccc23)cc1`, the inhibition came to 2.14%.
With `CC(=O)N1c2ccc(S(=O)(=O)Nc3ccc(Cl)cc3C)cc2CC1C` (stereo not given) the figure was 18.6%; with `NC(=O)CSc1nc2ccccc2c(=O)n1-c1ccccc1`, active: 41.1%; with `CC1CC(C)CN(CCCNC(=O)CN2C(=O)CSc3ccc(S(=O)(=O)N4CCOCC4)cc32)C1` (stereo not given), active: 40.2%.
With `COc1ccc(N(CC(=O)N2CCN(c3ccc(F)cc3)CC2)S(=O)(=O)c2c(C)noc2C)cc1` the figure was -3.37%; with `CN1\C(=C/C=C/C=C/C=[N+](C)C)C(C)(C)c2ccccc21`, active: 63%.
As to `O=C(NCc1ccco1)c1ccc2c(c1)N(Cc1ccc(F)cc1)C(=O)c1ccccc1S2(=O)=O`, the inhibition is -7.21%.
For the molecule `CC(C)(C)c1cc(C(F)(F)F)nc(SCCCNC(=O)c2ccco2)n1`, the inhibition is active: 35.6%.
With `CC(=O)c1ccc(NC(=O)CN2CCN(c3ncccn3)CC2)cc1` the figure was active: 77.4%; with `Cc1ccc(-c2nn(-c3ccccc3Cl)cc2C(=O)NCC2CCCO2)cc1` (stereo not given), active: 30.9%; with `COc1cccc(N2CCN(S(=O)(=O)c3cc(-c4cc(C)no4)ccc3C)CC2)c1`, 5.33%.
Turning to `CC(C)COc1ccc(C(=O)Nc2cc(-c3ccccc3)no2)cc1`, the inhibition worked out at 0.711%.
As for `O=c1c2cn[nH]c2nc(SCc2c(F)cccc2F)n1-c1ccc(Cl)cc1`, the inhibition is -15.7%.
With `CCCCN(CC)CCCNC(=O)Cn1ncc2c([nH]c3ccc(C)cc32)c1=O` the figure was 17%; with `Cc1cc(NC(=O)CN2CCC(C)CC2)nc2c1c(=O)oc1ccccc12`, 7.34%; with `CCOC(=O)C(Cc1c[nH]c2ccccc12)NC(=O)COc1ccc(CC)cc1` (stereo not given), 1.89%.
With `Cc1ccc(Cl)cc1NC(=O)CN1C(=O)CCc2ccccc21` the figure was -4.09%.
With `CCCCNc1oc(-c2ccc(COc3ccc(OC)cc3)o2)nc1C#N`, the inhibition came to 3.22%.
To `COc1ccc(C)cc1N(C)C(=O)CCc1nc(-c2ccccc2F)no1` belongs 9.76%; to `CCOC(=O)c1c(C)[nH]c(C)c1S(=O)(=O)N1CCC(C(=O)NCc2ccccc2Cl)CC1`, -7.82%.
To `CN(C)c1ccc(Nc2ncnc3sc4c(c23)CCCC4)cc1` belongs -10.3%; to `COC(=O)c1ccccc1NC(=O)CCCn1c(=O)c2cccn2c2cccnc21`, 7.23%; to `COc1ccc(CC(=O)NCc2nc3cccnc3n2Cc2ccccc2)cc1`, 1.53%.
With `COc1ccc(CCNC(=O)c2c(C)oc3ncn(C)c(=O)c23)c(OC)c1` the figure was 1.18%.
With `CC(=O)Nc1ccc(N(C(=O)Cn2nnc3ccccc32)C(C(=O)NCc2ccccc2)c2ccc(C)cc2)cc1` (stereo not given), the inhibition came to 16.7%.
With `Cc1ccc2[nH]c(=O)c3cc(C(=O)NCCCN4CCC(C)CC4)sc3c2c1` the figure was 16.6%; with `CCN(C(=O)CSc1nc2ccccc2n1Cc1ccc(F)cc1Cl)c1ccccc1`, -0.279%.
With `O=C(Cn1ncn2c(cc3ccccc32)c1=O)NCc1ccc(F)cc1` the figure was 3.44%; with `COc1ccc(F)cc1S(=O)(=O)Nc1cccc(-c2ccc(N3CCC(C)CC3)nn2)c1`, 5.23%; with `Cc1ccc(-c2cc(-c3ccccc3)c(C#N)c(SCC(O)CS(=O)(=O)Cc3ccccc3)n2)cc1` (stereo not given), -15.1%.
For the molecule `CC(=C1C(=O)c2ccccc2C1=O)N1CCN(c2ccccn2)CC1`, the inhibition was active: 56.1%.
To `COc1ccc(Nc2ncnc3c2nc2n3CCCCC2)cc1` belongs 10%.
To `CCCOc1ccc(CNC(=O)c2[nH]c3cc(OC)ccc3c2Sc2ccccc2)cc1` belongs 10.2%; to `Cc1noc(/C=C/c2ccccc2F)c1S(=O)(=O)N1CCC(C(=O)N2CCOc3ccccc32)CC1`, -15.8%; to `CCc1ccc(NC(=O)Cn2c(=O)n(CCC(=O)NCCc3ccc(Cl)cc3)c(=O)c3ccccc32)cc1`, -6.08%.
In the case of `COc1ccc(C)cc1NC(=O)Nc1cccc(-c2noc(C)n2)c1`, the inhibition came to 23.8%.
To `COc1ccccc1CCNC(=O)C(C)Sc1nc(-c2ccccc2)cc(C(F)(F)F)n1` (stereo not given) belongs -2.37%.
Turning to `COc1ccc(C(=O)Nc2nc(-c3nnn(-c4ccc(C(C)C)cc4)c3C)ns2)cc1`, the inhibition is 12.9%.
With `CC(C)C(=O)NC(=S)Nc1ccc(S(=O)(=O)Nc2nccs2)cc1` the figure was active: 39%; with `CC(=O)c1cccc(NS(=O)(=O)c2cc3c(cc2C)n(C)c(=O)c(=O)n3C)c1`, 2.76%.
To `Cc1cccc(NC(=O)C(=O)NCC(c2ccc3c(c2)OCO3)N2CCN(c3ccccc3)CC2)c1` (stereo not given) belongs -10.3%.
To `O=C(Nc1sc2c(c1C(=O)Nc1ccccc1)CCC2)c1ccc(Br)cc1` belongs 11.6%; to `CCOCCCNC(=O)C(c1ccccc1)N1Cc2ccccc2C1=O` (stereo not given), -3.69%.
For the molecule `COc1ccc(S(=O)(=O)Nc2ccc(S(=O)(=O)Nc3nccs3)cc2)cc1`, the inhibition is active: 49.6%.
On to `O=C1C2CCCN2C(=O)N1CCCCN1CCN(c2ccc(F)cc2)CC1` (stereo not given), for which the inhibition is active: 39.6%.
Consider `COc1ccccc1CNC(=O)CSc1ccc(-c2sc(-c3ccccc3)nc2C)nn1`, for which the inhibition is -15.4%.
To `CN(C(=O)CSc1nnc(COc2ccccc2)o1)c1ccccc1` belongs 3.9%; to `CCOc1ccc(OCC)c(NC(=O)c2cc3ccccn3n2)c1`, 4.95%; to `CCC(=O)N1CCc2cc(S(=O)(=O)NC(Cc3ccccc3)C(=O)Nc3ccccc3C)ccc21` (stereo not given), -17.9%.
To `O=S(=O)(c1ccc(Cl)cc1)c1nc(-c2ccco2)oc1SCc1ccccc1F` belongs 4.61%; to `CCOC(=O)c1c(NC(=O)c2cc(=O)c3cc(C)cc(C)c3o2)sc(C)c1C`, 6.23%; to `O=C(CSc1nccn1C1CCCC1)Nc1cc(C(F)(F)F)ccc1Cl`, 7.74%.
To `Cc1ccc(-c2nn(CC(=O)NCc3ccccc3)c3c2cnc2ccc(F)cc23)cc1C` belongs -0.815%.
For `O=C(c1ccc2c(c1)N(Cc1ccccc1)C(=O)c1ccccc1S2(=O)=O)N1CCc2ccccc21`, the inhibition amounted to 8.99%.
With `COc1ccc(OC)c(-n2c3c(cc(-c4nc(-c5ccc(Cl)cc5)cs4)c2=O)C(=O)CC(C)(C)C3)c1` the figure was -2.3%.
On to `CCCNC(=O)CN1C(=O)COc2ccc(S(=O)(=O)N3CCC(C)CC3)cc21`, for which the inhibition was -0.568%.
With `Cc1c(NC(=O)C(C)(C)Oc2ccc(Cl)cc2)cccc1-c1nc2ccccc2o1` the figure was -1.04%; with `Cc1ccc(NC(=O)c2ccc(CN3CC(=O)N4CCCCC4C3=O)cc2)c(C)c1` (stereo not given), 5.88%; with `COC(=O)c1ccc(NC(=O)CSc2nnc3c4ccccc4n(C(C)C)c3n2)cc1`, 8.36%.
To `COC(=O)c1ccccc1NC(=O)c1nc(-c2ccc(Cl)cc2)n2c1CCCCC2` belongs 11.3%; to `Cc1ccc2c(=O)c(C(=O)c3ccc(F)cc3)cn(CC(=O)Nc3ccc4c(c3)OCCO4)c2n1`, -0.42%.
With `COc1ccc(CNC(=O)CC(c2ccc(OC)cc2)N2Cc3ccccc3C2=O)cc1` (stereo not given) the figure was -4.04%; with `OCCCn1c(-c2ccc(F)cc2)csc1=Nc1ccc(F)cc1`, -10.4%; with `CC(C)Oc1ccccc1NC(=O)CSc1nccn1C`, -7.62%.
As to `O=C(O)CSc1nc2ccc(NC(=O)COc3ccc(Cl)cc3)cc2s1`, the inhibition was -19.6%.
As for `Cc1ccc(-n2c(=O)c3c(c4cc(C)ccc4n3C)n(CC(=O)c3ccc(Cl)cc3)c2=O)cc1`, the inhibition is -4.35%.
To `CS(=O)(=O)N(CCc1ccccc1)CC(N)=O` belongs active: 31.3%; to `COc1cc(OC)c(NC2=C(c3ccc(C(F)(F)F)cc3)C(=O)c3ccccc32)cc1Cl`, 4.56%.
For the molecule `O=C(Cn1c(=O)nc(-c2ccccc2)c2ccccc21)N1CCN(c2ccc(F)cc2)CC1`, the inhibition was -1.1%.
To `C=C1C(=O)C=C2CN(C(=O)c3ccccc3)[C@@](Cc3ccc(F)cc3)(C(=O)OC)[C@@H]12` belongs active: 44.1%; to `O=C(CS(=O)(=O)c1cccc2nsnc12)NCc1ccccc1`, 11.6%; to `COc1cc(NC(=O)C(Cc2ccccc2)NS(=O)(=O)c2cccs2)cc(OC)c1` (stereo not given), 13.6%.
With `CC(C)C(=O)Nc1nc2c(s1)CC(C(C)(C)C)CC2` (stereo not given) the figure was 4.97%.
Consider `CCOc1ccc(CNC(=O)Cn2nc(C)c3c(C)n(-c4ccc(C)cc4)nc3c2=O)cc1`, for which the inhibition stood at 5.08%.
As to `CC(=O)c1ccc(-n2c(CCC(=O)O)ccc2-c2cccs2)cc1`, the inhibition came to 8.86%.
To `O=C(CCS(=O)(=O)c1ccccc1)N(Cc1cccnc1)c1nc2ccc(F)cc2s1` belongs 23.8%.
As to `Cc1ccc(C)c(CSc2nnc(C)n3c2cc2sccc23)c1`, the inhibition is 5.12%.
With `COc1ccc(-c2cnc(C)o2)cc1S(=O)(=O)Nc1ccc(OC(F)(F)F)cc1` the figure was -11.7%.
To `C#CCn1c(=O)n(-c2cccc(Cl)c2C)c(=O)c2c3c(sc21)CN(C(C)=O)CC3` belongs -8.04%; to `Cc1ccc(C)c(N2CCN(CCCNC(=O)c3cnn(-c4ccc(F)cc4)c3C3CCN(C(=O)OC(C)(C)C)CC3)CC2)c1`, 3.32%; to `Cn1c(SCc2ccccc2)nnc1-c1c[nH]c2ccccc12`, active: 35.2%.
For `COc1ccc(CNC(=O)C(C)n2nc(C)c3c(C)n(-c4ccccc4)nc3c2=O)c(OC)c1` (stereo not given), the inhibition turned out to be 1.74%.
With `CCc1nn2c(=O)cc(COC(=O)c3ccccc3NC(=O)COc3ccc(C)c(C)c3)nc2s1` the figure was 16%; with `CCCCn1cc(S(=O)(=O)c2cc(C)ccc2C)c(=O)c2cc(F)c(F)cc21`, 2.54%; with `Cc1oc(-c2ccccc2F)nc1CN1CCC(C(=O)NCCc2ccccc2)CC1`, 6.39%.
With `CC(C(=O)Nc1ccc(OC(F)(F)F)cc1)N1Cc2ccccc2C1=O` (stereo not given) the figure was -3.46%; with `Cc1ccc(CNC(=O)Cc2csc3ccccc23)cc1`, -8.16%.
